{
  "source": "the supplement of paper PMC10338343",
  "note": "± gives the standard deviation. The list shows a part of the results, in another mix than the full data.",
  "data": [
    {"tested_on": "MIWI (PIWIL1) piRISC loaded with L1MC piRNA (30 nt)", "assay": "pre-steady-state target cleavage rate (min^-1); MIWI and MILI are mouse PIWI proteins and EfPiwi is from a freshwater sponge; tags in brackets are library labels; higher = faster piRNA-guided slicing of the target", "conditions": "guide: L1MC piRNA 5'p-UAACUAAAUACUAUGCAAGCUGUAGGUCCU; auxiliary factor: 500 nM mouse GTSF1", "procedure,_shortened": "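In Cleave-'n-Seq, a transcribed, DNA-blocked target RNA library (0.1 nM) was combined with 1 nM active affinity-purified piRISC bearing one synthetic guide, with or without 500 nM GTSF1 partner protein. Reactions ran in HEPES–potassium acetate buffer at 33 °C for 0–8 or 0–960 min. Uncleaved targets were sequenced and normalised to depth and to weakly complementary targets, three trials were pooled, and k3 was capped at 0.0001 min^-1. The pre-steady-state cleavage rate was obtained by fitting a burst-and-steady-state model.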", "values": [
      {"sequence": "UGGACCUACAGCUUCGUUAGUAUUUAGAAA", "pre-steady-state target cleavage rate": "0.00329 ± 0.0029"},
      {"sequence": "UCCUGGAUGAGCUUGCAAUAGUAUUUAGUUA", "pre-steady-state target cleavage rate": "0.00429 ± 0.0028"},
      {"sequence": "UCCUGGAUGUCGACGCAUAGUAUUUAGUUA", "pre-steady-state target cleavage rate": "0.00699 ± 0.003"},
      {"sequence": "UCCUCCUACAGCUUGCAUAGUAUUAUCAAA [g7:g26:cont:t1A]", "pre-steady-state target cleavage rate": "0.321 ± 0.041"},
      {"sequence": "UCCACCUACACGUUGCAUAGUAUUUACAAA", "pre-steady-state target cleavage rate": "0.208 ± 0.024"},
      {"sequence": "UCCUGGUACAGCUUGCAUAGUAUAAUGUAA", "pre-steady-state target cleavage rate": "0.152 ± 0.042"},
      {"sequence": "UCCUGGAUGAGGUUGCAUAGUAUAUAGUUA", "pre-steady-state target cleavage rate": "0.0442 ± 0.01"},
      {"sequence": "UCGACCUACACGUUGCAUAGUAUUUAGAAA", "pre-steady-state target cleavage rate": "0.288 ± 0.026"},
      {"sequence": "UCCUGGAUGUCGAAGCAUAGUAUUUAGUUUA", "pre-steady-state target cleavage rate": "0.00467 ± 0.0032"},
      {"sequence": "UCCUCCUACAGCUUGCAUAGUAAAUACAAA", "pre-steady-state target cleavage rate": "0.0937 ± 0.027"},
      {"sequence": "UCCUGGUACAGCAAGCAUAGUAUUUACAAA", "pre-steady-state target cleavage rate": "0.0933 ± 0.025"},
      {"sequence": "UCCUGGAUCAGCUUCCAAAGUAUUUAGUUA", "pre-steady-state target cleavage rate": "0.0843 ± 0.0099"},
      {"sequence": "UCCUGGAACAGCUUCCAUAGUUUUUAGUUA", "pre-steady-state target cleavage rate": "0.00871 ± 0.0042"},
      {"sequence": "AGGACCUACAGCUUGCAUCAGUAUUUAGUUA", "pre-steady-state target cleavage rate": "0.193 ± 0.065"},
      {"sequence": "UCCUCCUACAGCUUGGUAAGUAUUUAGUAA", "pre-steady-state target cleavage rate": "0.0288 ± 0.0087"},
      {"sequence": "UCCUGGAUGUGCUUGCAUAGUAUUAAGAAA", "pre-steady-state target cleavage rate": "0.00482 ± 0.0036"},
      {"sequence": "UCCACCUACACGAUGCAUAGUAUUUAGUAA", "pre-steady-state target cleavage rate": "0.322 ± 0.029"},
      {"sequence": "UCCUGGAACAGGAAGCAUAGUAUUUAGUUA", "pre-steady-state target cleavage rate": "0.0934 ± 0.016"},
      {"sequence": "AGGACCUACACGAUGCAUAGUAUUUAGAAA", "pre-steady-state target cleavage rate": "0.261 ± 0.027"},
      {"sequence": "UCCUGGAUGUCGAACGUAUGAUUUUAGUUA", "pre-steady-state target cleavage rate": "< 0.0001"},
      {"sequence": "UCCUCCUACAGCUUGCAUAGUAUAUUCAAA", "pre-steady-state target cleavage rate": "0.271 ± 0.044"},
      {"sequence": "UCCACCUACAGGAAGCAUAGUAUUUAGAAA", "pre-steady-state target cleavage rate": "0.15 ± 0.029"},
      {"sequence": "UCCUCCUACAGCUUGCGAUAGUAUUUAGUUA", "pre-steady-state target cleavage rate": "0.0601 ± 0.018"},
      {"sequence": "UCCUGCUACAGCUUGCAUAGUUAUUUCAAA", "pre-steady-state target cleavage rate": "0.01 ± 0.0048"}
    ]}
  ]
}
